Some of the results follow. Cleavage of a single-stranded DNA pool by Rep nickase domains was read by sequencing (1 h at 37 °C, 3 µM enzyme); the outer parts of the 90-letter strands are left off. Numbers give uncut DNA relative to the enzyme-free pool, as log2; the lower, the more was cut; hits are not called. Because reads are shares of a total, they shift together; values above 0 arise when much of the pool is cut.
What follows are sequences tested on T1, Rep nickase domain of tomato golden mosaic virus (assay: uncleaved DNA left, log2 of reads against the no-enzyme library (log2 ratio); higher = less cleavage (more negative = more Rep cleavage of the k-mer); sequences stand for … in CTCGTCCG…ACCGGAGA).
T1 sequence (protein, residues 1-124, tag omitted): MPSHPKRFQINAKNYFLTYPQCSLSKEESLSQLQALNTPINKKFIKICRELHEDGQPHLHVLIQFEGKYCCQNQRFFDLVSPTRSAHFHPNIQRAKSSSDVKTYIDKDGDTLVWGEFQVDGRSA
Protocol: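 A pool of 90-nt single-stranded DNAs with seven random bases just before the constant AC of the nick site (name = the seven bases) was cut by 3 µM recombinant His6-SUMO-tagged Rep nickase domain (300 nM DNA, 50 mM HEPES pH 8.0, 50 mM NaCl, 1 mM MnCl2, 1 h, 37 °C, three replicates). Uncut DNA was amplified and sequenced.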

Sequence | uncleaved DNA left (log2)
AGCCGCA | 0.00925
ATGCGTT | -0.0373
ACATTCC | -0.0284
AACCCAG | 0.141
TTACTGC | -0.0673
TTATAAA | -0.0609
CCCCTTC | -0.111
CGGACAG | 0.112
GCTCCCT | 0.0214
TTTCGAC | -0.0351
CTCAGAT | -0.0225
GCGGTTC | 0.0748
CTCATTG | 0.141
TCTAAAC | 0.222
TACGAAC | -0.0645
TTGCTTC | -0.212
GATATGA | 0.106
GACACCA | 0.0428
TCTTGCC | -0.0504
AAGCTAA | 0.0752

Sequence | uncleaved DNA left (log2)
AGACCAG | 0.0203
CTGGCGT | -0.249
AGTGTAG | 0.0246
TCAGCAG | -0.0707
ACGTGCC | 0.152
ACAAACA | 0.129
GACAGCG | 0.00337
GAATATG | 0.0619
GGAACAA | -0.0583
GCCATTA | 0.0534
ACTACTG | 0.0825
TGCGATC | -0.0605
AGGGCGA | -0.078
ATGCATG | -0.0337
GTCATCA | 0.134
GCTCGGT | -0.0313
ACCGTAC | -0.202
CGTTAGC | 0.0408
TTCTGCG | -0.0364
GATCGGG | 0.0957

Reference: the supplement of paper PMC7826260
